PubChem BioAssay AID504832 (National Center for Advancing Translational Sciences (NCATS), 2011)
“And” between values parts separate entries of the source, which are not always exact repeats. Equal entries are not always repeated. About 18,000 (5.8%) of roughly 310,000 compounds were called active. Inconclusive means that the source gave no clear call. Such entries were picked first, then a sample of the others. The call rests on the fitted dose curve; in most records, active means well fitted inhibition curve with a large enough effect; inconclusive means small, poorly fitted or top-dose-only effect, or another doubt; inactive means no such curve, though single readings can be large or run the other way. No potency is given beside an inconclusive call; the fits are too rough.

Assay: Primary qHTS for delayed death inhibitors of the malarial parasite plastid, 48 hour incubation
Conditions: P. falciparum luciferase growth in erythrocytes; series mostly up to 28.7 µM; activity change, negative = inhibition: at the top concentration
Procedure, shortened: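 Parasite viability was followed by luminescence of a genomically integrated firefly luciferase. Cultures held 0.1% parasitemia at 2% hematocrit (final), incubated under 5% CO2 at 37 C.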
On the % scale 0 is the no-effect control and ±100 the full control effect; potency means the concentration at half of the fitted maximal effect; tags describe the fitted curve by direction and shape.

Row | Structure (SMILES) | Potency | activity change, negative = inhibition
1 | COc1ccc(NC(=O)CN(C)C(=O)C(Sc2ccccc2)c2ccccc2)cc1 (centres undefined) | inconclusive [inhibitor, partial curve, poor fit] | –
2 | C/C(=N\NC(=O)COc1ccc(C)cc1C(C)C)c1cc2ccccc2o1 | – | inactive: 20.5%
3 | CCOC(=O)CNc1nc(C(C)(C)C)nc2c1nnn2Cc1ccccc1Cl | inconclusive [inhibitor, single point] | –
4 | Cc1c(/C=N/N=C2\CCC3C4CCc5cc(O)ccc5C4CCC23C)cnn1C (centres undefined) | inconclusive [inhibitor, partial curve] | –
5 | CC(=O)c1cccc(OCc2cc(C(=O)N3C[C@@H](C)O[C@@H](C)C3)no2)c1 | – | inactive: 18.9%
6 | CCCCCCSc1ccc(-c2nc3ccc(C)cn3c2NCc2ccccc2)cc1 | inconclusive [inhibitor, single point] | –
7 | Cc1csc2c(SCC(=O)NNC(=O)C(Cl)Cl)ncnc12 | active: 3.29 µM | –
8 | CCOC(=O)c1c(N)n(Cc2ccco2)c2nc3ccccc3nc12 | inconclusive [inhibitor, single point] | –
9 | CCC(C)NC(=O)c1c(N)n(CCCOC)c2nc3ccccc3nc12 (centres undefined) | inconclusive [inhibitor, single point] | –
10 | Cc1c(C(=O)N(C)C2CCCCC2)sc2ncnc(N3CCN(c4ccccc4F)CC3)c12 | inconclusive [inhibitor, partial curve] | –
11 | O=S(=O)(c1ccc(=S)[nH]c1)N1CCOCC1 | inconclusive [inhibitor, single point] | –
12 | O=C(CCCOc1ccccc1)Nc1nc2ccccc2[nH]1 | – | inactive: 278%
13 | c1ccc(-n2cccc2CNC2CCCCC2)cc1 | – | inactive: 1.18%
14 | CCCCOc1ccc(CC(=O)NO)cc1 | active: 287 nM and active: 415 nM | –
15 | N#C/C(=C/c1ccc(OCc2ccc(C(=O)O)cc2)cc1)C(=O)Nc1ccccc1 | – | inactive: -4.98%
16 | COc1ccc([N+](=O)[O-])cc1NC(=O)c1ccc(N2C(=O)CCC2=O)cc1 | – | inactive: -1.39%
17 | O=C(c1cc(-c2cccs2)nc2ccccc12)N1CCN(S(=O)(=O)c2cccc(F)c2)CC1 | inconclusive [inhibitor, single point] | –
18 | Cc1ccc2c(c1)N(CC(=O)NCCCN1C(C)CCCC1C)C(=O)c1cccnc1O2 (centres undefined) | – | inactive: 5.28%
19 | CCOC(=O)N1CCN(S(=O)(=O)c2ccc(F)c(C(=O)Nc3cc(C)cc(C)c3)c2)CC1 | active: 8.28 µM | –
20 | C/C(=N\NC(=O)c1ccc(-c2ccccc2)cc1)c1ccco1 | inconclusive [inhibitor, single point] | –
21 | COc1ccc(CN2CCN(C(=O)c3cc(C4CC4)nn3-c3ccccc3)CC2)cc1F | active: 8.28 µM | –
22 | CCOC(=O)C1(CCCc2ccccc2)CCN(CC(O)CO)CC1 (centres undefined) | inconclusive [inhibitor, single point] | –
23 | CC(=O)Nc1cccc(/C(C)=N/NC(N)=S)c1 | – | inactive: 12%
24 | O=C(NCc1ccccc1Cl)C1CCN(c2ncnc3c2nc2n3CCCCC2)CC1 | – | inactive: -17.5%
25 | Cc1ccc(NC(=O)CNc2ccccc2N2CCCC2=O)cc1S(=O)(=O)N1CCCCC1 | active: 10.4 µM | –

Row | Structure (SMILES) | Potency | activity change, negative = inhibition
26 | CCN1C(=O)C(CC(=O)Nc2ccccc2)N(Cc2ccccn2)C1=S (centres undefined) | – | inactive: -22.4%
27 | COc1ccc2nc3cc(Cl)ccc3c(Nc3cc(CN4CCCC4)c(O)c(CN4CCCC4)c3)c2n1 | active: 0.0522 µM | –
28 | CCOC(=O)CCCCC(=O)c1[nH]c(=O)[nH]c1Cn1cnc2ccccc21 | – | inactive: -6.98%
29 | O=C(CN1C(=O)COc2ccccc21)N(Cc1cccnc1)Cc1cccc(F)c1 | inconclusive [inhibitor, single point] | –
30 | CCN(CCCNC(=O)c1[nH]c(C)c(C(C)=O)c1C)c1cccc(C)c1 | inconclusive [inhibitor, single point] | –
31 | O=C(CCn1c(=O)c2ccccc2n(Cc2ccccc2)c1=O)NC1CCN(Cc2ccccc2)CC1 | inconclusive [inhibitor, partial curve] | –
32 | Cc1ccc(-c2nnc(N3CCCCC3)c3ccccc23)cc1S(=O)(=O)N(C)C | inconclusive [inhibitor, single point] | –
33 | CN(C)S(=O)(=O)c1cccc(C(=O)Nc2cc(Cl)cc(Cl)c2)c1 | – | inactive: -71.8%
34 | O=C(c1ccc(Cl)c(S(=O)(=O)N2CCOCC2)c1)N1CCN(Cc2ccccc2)CC1 | inconclusive [inhibitor, single point] | –
35 | COc1ccc(CCNC(=O)CSc2nnc3ccc(-c4cccnc4)nn23)cc1 | inconclusive [inhibitor, partial curve, poor fit] | –
36 | Cc1cccc(NC2=C(NC(=O)c3ccccc3)C(=O)c3ccccc3C2=O)c1 | active: 0.465 µM | –
37 | O=C(Nc1cnn(C23CC4CC(CC(C4)C2)C3)c1)c1cc(-c2ccccc2)on1 | active: 10.4 µM | –
38 | Clc1cc(NCc2cccs2)ccc1N1CCOCC1 | – | inactive: 31.5%
39 | Cc1onc(-c2c(F)cccc2Cl)c1C(=O)N(Cc1ccccc1)C(C)C | inconclusive [inhibitor, single point] | –
40 | COc1ccccc1C(=O)/C=C/c1ccc(N2CCCCC2)c([N+](=O)[O-])c1 | inconclusive [inhibitor, single point] | –
41 | Cc1cccc(N2CCN(C(=O)c3ccc(CNc4c(N5CCC(C)CC5)c(=O)c4=O)cc3)CC2C)c1 (centres undefined) | inconclusive [inhibitor, single point] | –
42 | Cc1cc(C(=O)COC(=O)c2n[nH]c(=O)c3ccccc23)c(C)n1C(C)C | – | inactive: 99.5%
43 | Cc1ccc2nc(SCC(=O)N(C)C3CCS(=O)(=O)C3)[nH]c2c1 (centres undefined) | inconclusive [inhibitor, single point] | –
44 | Cc1cccn2cc(CCNS(=O)(=O)c3ccc([N+](=O)[O-])cc3)nc12 | – | inactive: 25.1%
45 | CC1CCCC(C)N1C(=O)Cn1cc(C#N)c2ccccc21 (centres undefined) | inconclusive [inhibitor, single point] | –
46 | Cc1ccccc1N(CC(=O)NCc1ccncc1)S(C)(=O)=O | – | inactive: 8.53%
47 | CC(OC(=O)c1c[nH]c2ccccc12)C(=O)N1CCCC1 (centres undefined) | inconclusive [inhibitor, single point] | –
48 | Cc1cc(C)c2c(=O)[nH]c(SCc3ccccc3)nc2n1 | – | inactive: 23.9%
49 | Cc1ccc(NC(=O)c2ccc(CNc3c(N4CCC(C)CC4)c(=O)c3=O)cc2)cc1 | inconclusive [inhibitor, single point] | –
50 | Cc1ccc2c(C(=O)CN3CC(C)CC(C)C3)c(C)[nH]c2c1 (centres undefined) | inconclusive [inhibitor, single point] | –

Row | Structure (SMILES) | Potency | activity change, negative = inhibition
51 | Cc1cc(C)nc(N2CCC(C(=O)N3CCN(c4cc(Cl)ccc4C)CC3)CC2)n1 | inconclusive [inhibitor, full curve] | –
52 | CCOC(=O)CSc1nc2cc(OCC)ccc2cc1C#N | – | inactive: 119%
53 | O=C(COc1coc(CN2CCN(c3ccccc3)CC2)cc1=O)Nc1ccccc1 | inconclusive [inhibitor, single point] | –
54 | CCc1ccc(-c2cc(-c3n[nH]c(=S)n3CC)c3ccccc3n2)cc1 | inconclusive [inhibitor, full curve] | –
55 | Cc1ccc(NS(=O)(=O)c2cc(Br)cnc2N)c(Cl)c1 | – | inactive: 2.25%
56 | O=C(CN1CCN(c2ccccc2)CC1)Nc1ccc(OCc2ccccc2)cc1 | – | inactive: 6%
57 | COc1ccc(NC(=O)c2cncc(Br)c2)c(S(=O)(=O)N2CCOCC2)c1 | inconclusive [inhibitor, partial curve, poor fit] | –
58 | COc1cc2c(cc1OC)C(c1ccc([N+](=O)[O-])cc1)NCC2 (centres undefined) | inconclusive [inhibitor, single point] | –
59 | CCOc1nc(-c2ccc(C)cc2)ccc1-c1noc(-c2cccnc2)n1 | – | inactive: 8.25%
60 | CCOC(=O)C1(CCC(C)C)CC(CSc2nc3ccccc3[nH]2)OC1=O (centres undefined) | inconclusive [inhibitor, single point] | –
61 | CN(C)/C=N/NC(=O)c1ccccc1Cl | – | inactive: -14.4%
62 | O=S1(=O)[C@H]2C[C@@H]3C=C[C@@]2(CN1Cc1cccc(C(F)(F)F)c1)O3 | – | inactive: 22.5%
63 | COCC(=O)N1CCC(Oc2ccc(C(=O)NCc3csc(C(C)C)n3)cc2)CC1 | – | inactive: 8.99%
64 | Cc1cc(N2CCN(c3ccccc3)CC2)n2ncnc2n1 | – | inactive: 11.7%
65 | CCCCOC(=O)C1=C(C)Nc2ncnn2C1c1cccc(OC)c1OC (centres undefined) | inconclusive [inhibitor, partial curve] | –
66 | COc1cccc(C(=O)N(Cc2cc3cc(C)ccc3[nH]c2=O)C(C)C)c1 | active: 7.38 µM | –
67 | O=C(C[N+]1(CC#Cc2ccccc2)CCCCC1)c1ccc(Cl)cc1 | inconclusive [inhibitor, single point] | –
68 | COC(=O)[C@H](Cc1ccccc1)N(C)S(=O)(=O)c1cccc(S(=O)(=O)N(C)[C@@H](Cc2ccccc2)C(=O)OC)c1 | – | inactive: 0%
69 | Nc1ccc(CN2CCOCC2)cc1 | – | inactive: 11.2%
70 | CC(C)=CCC/C(C)=C/CC(C)(C)CNCCN1CCNCC1 | active: 4.65 µM | –
71 | COc1ccc(-c2cc(C(=O)N/N=C/c3ccc4c(c3)OCO4)c3ccccc3n2)c(OC)c1 | inconclusive [inhibitor, partial curve] | –
72 | O=C(COc1ccccc1[N+](=O)[O-])NCC1(N2CCCCC2)CCCCC1 | – | inactive: -15.4%
73 | COc1ccc(-c2cc(C(=O)OCC(=O)c3ccc(C)c([N+](=O)[O-])c3)c3ccccc3n2)cc1 | – | inactive: 5.28%
74 | CC(C)CCNC(=O)c1ccc2c(c1)N(C)C(=O)c1ccccc1S2 | inconclusive [inhibitor, single point] | –
